By stoichiometry N is commonly meant the number of molecules, sites or subunits per partner or assembly.

The data set deals with the molecule itself. Description: cryo-EM structure.

B1: Mycobacterium smegmatis type II NADH dehydrogenase (NDH-2) with a C-terminal 3×FLAG tag (enzyme, M. smegmatis, UniProt A0QYD6 1-457, looked up)
chain: MSHPGATASDRHKVVIIGSGFGGLTAAKTLKRADVDVKLIARTTHHLFQPLLYQVATGIISEGEIAPATRVILRKQKNAQVLLGDVTHIDLENKTVDSVLLGHTYSTPYDSLIIAAGAGQSYFGNDHFAEFAPGMKSIDDALELRGRILGAFEQAERSSDPVRRAKLLTFTVVGAGPTGVEMAGQIAELADQTLRGSFRHIDPTEARVILLDAAPAVLPPMGEKLGKKARARLEKMGVEVQLGAMVTDVDRNGITVKDSDGTIRRIESACKVWSAGVSASPLGKDLAEQSGVELDRAGRVKVQPDLTLPGHPNVFVVGDMAAVEGVPGVAQGAIQGGRYAAKIIKREVSGTSPKIRTPFEYFDKGSMATVSRFSAVAKVGPVEFAGFFAWLCWLVLHLVYLVGFKTKIVTLLSWGVTFLSTKRGQLTITEQQAYARTRIEELEEIAAAVQDTEKAAS
As to B1, the “stoichiometry N” value was found to be 2.

These data come from paper doi:10.1101/2025.01.08.631920 (bioRxiv, 2025).
